Test results from PubChem BioAssay AID485294 (National Center for Advancing Translational Sciences (NCATS), 2010).
Out of some 370,000 compounds screened, about 150 (0.041%) were called active. This list was built around the results that the source calls inconclusive (neither active nor inactive); the mix of calls is not that of the screen. Calls come from the whole dose curve; as a rule, active = well fitted inhibition curve with a large enough effect; inconclusive = small, poorly fitted or top-dose-only effect; inactive = flat fitted curve, though single readings scatter. Potencies of inconclusive entries are left out as doubtful fits.

What follows are compounds tested against Beta-lactamase (Escherichia coli (strain K12)) (UniProt P00811) (assay: qHTS Inhibitors of AmpC Beta-Lactamase (assay with detergent)). Settings: AmpC hydrolysis of nitrocefin, absorbance 480 nm, 0.01% Triton; activity change, negative = inhibition: at 114 µM (top of the series).
Procedure, shortened: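 20 mM phosphate pH 7.0 + 0.01% (detergent screen) or 0.0001% Triton X-100; 5.3 nM AmpC reagent; cpd preinc 15 min RT; nitrocefin (800 uM stock) to start; A480 q20 s × 4 min; Activity was normalised to no-enzyme and no-compound control wells.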
Note: nearly all actives have a fitted effect of over 25% in size.
Potency is the fitted concentration of half-maximal effect; tags give direction and shape of the fitted curve.
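Throughout, for activity change, negative = inhibition: 0% = no-compound wells and -100% = no-enzyme wells.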

Chain of UniProt P00811 (P00811 whole entry, looked up): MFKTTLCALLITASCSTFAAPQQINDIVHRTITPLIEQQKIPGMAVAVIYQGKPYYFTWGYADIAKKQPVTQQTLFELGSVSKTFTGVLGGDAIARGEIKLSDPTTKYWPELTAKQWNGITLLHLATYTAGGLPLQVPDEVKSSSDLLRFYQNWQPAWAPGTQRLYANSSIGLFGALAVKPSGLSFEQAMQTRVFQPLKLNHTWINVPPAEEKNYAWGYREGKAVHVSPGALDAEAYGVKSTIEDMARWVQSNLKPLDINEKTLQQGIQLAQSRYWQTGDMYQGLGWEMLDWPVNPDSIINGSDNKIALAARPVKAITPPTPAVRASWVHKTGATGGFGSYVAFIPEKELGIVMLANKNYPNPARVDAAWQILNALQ

SMILES | Potency | activity change, negative = inhibition
CN(C(=O)COC(=O)c1cc2c(s1)CCCCC2)c1ccccc1 | inconclusive [inhibitor, full curve, poor fit] | –
COC(=O)/C=C1\S/C(=N\N=C\CC(=O)OC)NC1=O | – | inactive: 9.73%
CCCn1c(SCC(=O)NC(=O)NCc2ccco2)n[nH]c1=O | inconclusive [inhibitor, full curve, poor fit] | –
O=C1c2[nH]nc(-c3ccccc3)c2C(c2ccccc2)N1c1cccc(C(F)(F)F)c1 (stereo unspecified) | inconclusive [inhibitor, partial curve] | –
Cc1cc(S(=O)(=O)N2CCOCC2)ccc1OCC(=O)Nc1ccc(F)cc1F | – | inactive: -7.02%
CN(Cc1ccc(OC(F)F)cc1)C(=O)c1ccc2nccnc2c1 | inconclusive [inhibitor, full curve, poor fit] | –
Cc1ccc(C(=O)CSc2nc(C)cc(SCc3nnc(-c4ccccc4)o3)n2)cc1 | inconclusive [inhibitor, full curve, poor fit] | –
Cc1ccc(S(=O)(=O)CCC(=O)Nc2nc(C(C)(C)C)cs2)cc1 | – | inactive: 3.88%
COc1ccc(Br)cc1CNC(=O)C1CCCN(S(=O)(=O)N2CC(C)CC(C)C2)C1 (stereo unspecified) | – | inactive: -8.8%
COc1ccc(C(=O)C=CNNC(=O)c2ccc(Cl)cc2)cc1 | – | inactive: -0.123%
O=C(CSc1nc2c(c(=O)[nH]1)CN(Cc1ccc3c(c1)OCO3)CC2)Nc1ccccc1Cl | – | inactive: 2.43%
CC(C)(C)c1cc(CCC(=O)NCc2ccccn2)cc(C(C)(C)C)c1O | inconclusive [inhibitor, partial curve] | –
CC(=O)NCCC(=O)Nc1cc(S(=O)(=O)N2CCOCC2)ccc1N1CCCC1 | – | inactive: -14.3%
Cc1cc(C)cc(N(C(=O)Cc2cccs2)C(C(=O)NC2CCCC2)c2ccc(C)o2)c1 (stereo unspecified) | inconclusive [inhibitor, full curve] | –
CCc1nn2c(=O)c(S(=O)(=O)Nc3ccc(C(C)C)cc3)c(C)nc2s1 | inactive | –
Cc1ccc(NC(=O)C(=O)c2c[nH]c3ccccc23)cc1 | inconclusive [inhibitor, partial curve, poor fit] | –
Cc1sc(NC(=O)CCl)c(C(=O)c2ccccc2)c1C | – | inactive: 3.26%
CC(=O)c1ccc(Nc2ncnc3c2oc2ccccc23)cc1 | inconclusive [inhibitor, full curve, poor fit] | –

SMILES | Potency | activity change, negative = inhibition
CCOc1ccc(C(C)=O)cc1COC(=O)CCc1cc(OC)c(OC)c(OC)c1 | – | inactive: 1.11%
COc1ccc(OC)c(C(=O)NC(CC(N)=O)c2ccc(NCc3ccccn3)c([N+](=O)[O-])c2)c1 (stereo unspecified) | inconclusive [inhibitor, partial curve, poor fit] | –
C[C@@]12C(=O)N(c3ccc(C(F)(F)F)cc3)C(=O)N1[C@@H]1c3ccccc3OC[C@@H]1[C@H]2c1ccccc1 | – | inactive: -3.88%
O=C1NC(=S)S/C1=C\c1coc2ccccc2c1=O | – | inactive: -12.9%
O=C(NCCc1ccccn1)C1CCN(S(=O)(=O)c2ccc(Cl)cc2)CC1 | inconclusive [inhibitor, single point] | –
CC(=O)NC(Cc1ccc(C)cc1)C(=O)NC1CCN(c2ncccc2[N+](=O)[O-])CC1 (stereo unspecified) | inconclusive [inhibitor, full curve, poor fit] | –
Cc1ccc(NC(=O)CS(=O)CC(=O)N(CC(=O)NC2CCCC2)c2cc(C)ccc2C)cc1 (stereo unspecified) | inconclusive [inhibitor, partial curve, poor fit] | –
Cc1nc2sccn2c(=O)c1S(=O)(=O)Nc1cc(C(F)(F)F)ccc1Cl | – | inactive: -10.9%
O=C(COc1ncnc2sccc12)Nc1cccc(S(=O)(=O)N2CCOCC2)c1 | inconclusive [inhibitor, full curve, poor fit] | –
Cn1c(NC(=O)c2ccccc2C(F)(F)F)cc(=O)n(C)c1=O | inconclusive [inhibitor, full curve] | –
O=C(Nc1ccc2[nH]ccc2c1)c1ccccc1 | inconclusive [inhibitor, full curve, poor fit] | –
Cc1ccc(-n2ncc3c(SCc4ccccc4)ncnc32)cc1 | inconclusive [inhibitor, full curve, poor fit] | –
CCOC(=O)c1c(NC(=O)CC)sc(C(=O)NC2CCCC2)c1C | – | inactive: -4.94%
COc1ccccc1NS(=O)(=O)c1cc(NC(=O)CCNC(C)=O)ccc1N1CCCCC1 | – | inactive: 0.129%
CCOC(=O)c1sc2ncnc(N3CCN(CC)CC3)c2c1C | inconclusive [inhibitor, single point] | –
COc1cccc(NC(=O)/C=C/c2ccccc2[N+](=O)[O-])c1 | – | inactive: 1.76%
COc1ccc(/C=C/c2cccc[n+]2C)c(O)c1 | inconclusive [inhibitor, partial curve, poor fit] | –
CCOc1cc(/C=N/NC(=O)c2cccnc2)ccc1OCC(=O)N(C)C | inconclusive [inhibitor, partial curve] | –
